Read counts are not given, so values of variants with three or more changes are uncertain.
B1: OR4K15 (parent)
chain: GUUAACGGUCAUAGGCCAUGGAAACUAGGAGCACCAUUUCGCUGCCAGUGAAGAAAUGAACAAAGAAAAUCUGGGCCAGGCAGGCAUCAAAAGAAAUAGUCUUGCGCUCAACCAGAAAGUCUGUAAUCAUUUUAAGGGUA

Variants of: B1
Assay: self-cleavage, relative activity (ratio to wild type); higher = more cleavage; in vitro, sequencing; the parent is a self-cleaving ribozyme

Variant | self-cleavage
U38C U72A G137U | 0.35
U38C A64G A114U | 0.12
U39A A47U A56G A60G A66U A111G | 0.02
U38C A66G A111U A117G | 0.08
U38C C71A A94G | 0.97
U39C A52G A111G | 0.02
U39A A56G U120C | 0.65
U38C U72A A135U G137A | 0.37
U39C A51G A135G | 0.8
U39A A56G A98G U120C | 0.33
U39A U100C A114U | 0.13
U39A U43A U49G A67G U103C U120A U122A | 0.24
U39A U87G U97C A114G U120A | 0.03
U39A U70C U87C | 1.22
U38G A54G A90G A91G | 1.24
U38C U100C C112A U124C | 0
U38G U39A A134G | 1.07
U38C U87C U130C | 0.34
U39A A69U A94C A95U | 1.31
U39C A47G U70C | 0.46
U38C A67G A82G A117G U130C | 0.4
U39A A55G A67G | 1.24
U38C A114U U139C | 0.24
U39A U70C A117G U130C U131C | 0.81

Variant | self-cleavage
U38C A89G A91G | 1.22
U38C A89G A125G | 0.51
U38C G48A A56G A62G A66G | 0.93
U39A A96G U131C | 1.08
U39C A52U U100C A118U | 2.52
U39C A52G A63G | 1.81
U39A A64G U122C | 1.19
U38C C42U U43A U102C U127C | 0.67
U39A U108C A126U | 0.03
U38C U108C U132C | 0.01
U39A A66U A68G | 1.27
U39A A66U A118G U130C U132C | 0.32
U39C A52G U103C A111G | 0.03
U38C U87C A89G A94G | 2.98
U39A A54G C105U U130C | 0.19
U38C A64G G75A | 0.24
U38C U49A A63G | 1.24
U39C A52G U72C | 0.34
U39C A52G A59U U87C A94G | 0.52
U38C A68G U139C | 1.26
U38C A92U U120A | 1.3
U39A A82U A94G U131C | 0.38
U39A A51G A63G A90G | 1.44
U38C A67G A95C U139G | 0.49

Variant | self-cleavage
U39A A60U A62G U87C A116G | 0.52
U38C U70C A111G | 0.01
U38C U39C A125G | 0.7
U39A U43A A110C | 0.31
U39A A60G G93A U108A | 0.04
U38C U43A U49G | 1.28
U38C A98U A116G U132C | 0.89
U38C A78U A92U U139C A140U | 0.32
U39C A47U A95G U122C | 1.45
U38C U103C U120C | 0.37
U38C U39C A55U | 1.44
U39C A52G A60U | 1.27
U39A U87A A114G | 0.71
U39C A52G A78U U103C | 0.14
U38G C40U A94G | 1.66
U38C U49C U72G C112U | 0.01
U38C U100C A116G | 1.23
U38C G93A U97C U108C | 0.01
U38C U43C U108C U139A | 0.02
U39A A116G U139C | 0.19
U38C U57C A68U U103C | 1.05
U39A A54G G74U U108C A110G | 0
U38C U70A A90G | 1.12
U39A G44C A55G | 1.67

Variant | self-cleavage
U39A A67G A68G U108C | 0.03
U39A A60G A62G U72C | 0.1
U39A U57C A63G G73A A111G | 0.02
U38C A95G A125G | 0.5
U38C A67G U130C | 0.72
U39C A47G A64G | 1.39
U39A A51U A98G U103C | 0.67
U38C U39C U139C | 1.81
U38C A114G A118G A135G | 0.53
U38C A82U A125G | 0.02
U39A A111G U131C | 0.01
U39C A51G A55C A98U A111U | 0.12
U38C A82C A98G | 0.06
U39A A67U U122C U127C | 1.14
U38C A66G G80A A110G | 0.02
U39A A66U C113A A125G | 0
U38C U39A U103G | 0.02
U39C A51G A68G A114G | 1.01
U39A A62G A90G | 0.79
U38C U43C A63G A117G C121G | 2.51
U39A A62C A68G | 0.98
U39A A66U A111U A118G U131C | 0.01
U38C A82G A111G | 0.01
U38C A64G A69G | 1.51

Variant | self-cleavage
U38G A54U U87C | 1.91
U38C A118G U122C | 0.79
U38C C45U A51G A82U A90G | 0.17
U38C G74A U108C | 0.01
U38C A64G A94G U130C G137A | 0.73
U39A A82G U131C | 0.79
U38C A117G U130C | 0.26
U38C A68G C128U | 0.9
U39A A64G A66G A94G A118G | 1.23
U38C A62U A117G C121U | 2.17
U38G U70C A78U A140U | 0.11
U38C U49C A90G | 1.92
U39A A59U A62C A82G A94G U132C | 0.35
U38C U39C A51G | 1.41
U38C U39C A47G A92G | 1.04
U38C G74A A78G U108C | 0.02
U38C A110G A111G U132C | 0.01
U38C U43A A52U U72A A140G | 0.44
U38C A63G U131C | 1.57
U38C A64G A118U | 0.49
U39A A52G A134U | 1.36
U38C A82G U108C | 0.02
U39C A52G U130C | 1.12
U38G A54G U57A A117G | 1.34

Variant | self-cleavage
U38C A86G A140G | 1.69
U39C A52G A134G | 1.34
U39A U43A A91G A96U A111G | 0.03
U38C U43A A60G | 1.79
U39C A51G G58A | 0.76
U39A A51G A69G A117G | 0.98
U38C A94C A110G U139C | 0.09
U38C C81U A125U | 0.44
U38C U49G A69G U100C | 1.22
U39A A59G A69U A82G A140U | 0.23
U39A A111G G138U | 0.02
U39A A91U C109A A126G | 0.14
U39A U57C U122A | 1.47
U38C U49C G74A U87C | 0.12
U38G A64G A66G U72A A91G U130C | 0.17
U38C A91G A96U A129G | 0.78
U38G A110G C112U | 0.01
U39A U57C A60G A62G A66G A96G U120G | 0.11
U39A A67G A117G | 2.62
U39C A52G U97C A98U U102A | 0.43
U38C G80A U108C A118G U130C | 0
U39A U43C U122A | 2.25
U38C A63G A89G A134G | 0.85
U39A A59C A62U A114U | 0.02

Variant | self-cleavage
U38C U49C U127C | 0.2
U38C A90U A96G | 2.44
U38C A86U A111G | 0
U39A A64G A67G | 1.87
U39A U100A A118U | 0.28
U39A A52C A56G | 1.59
U39A A92G U108A A110U | 0.01
U38C G75C A95G U103C | 0.08
U38C C45G A78G | 0.11
U39A G83U U87A A96G U103C U139C | 0.07
U39A U122C U139A | 1.35
U38C U43C C88G | 1.88
U38G A96G G138A | 0.84
U38C C40A A95G | 2.47
U38C U72A U108G A129U | 0.01
U39C A47G A54U | 1.4
U38C A117G U133A | 2.25
U38C U39C U102A | 0.85
U38C U49C A59G A126G | 0.93
U38C U103C A116G | 0.55
U39A A47U A118U | 0.41
U38C G41A A51G A63G | 1.76
U39C A52G A92U | 0.84

Reference: the RNAGym collection of RNA variant scans (doi:10.7554/elife.90254)
